Assay results published in patent publication US20220378932A1 (published 2022).

How the values were obtained:
[1] = biological target: T1, Fc fusion of the human GFRα1 extracellular domain (GFRα1:Fc fusion protein) (human, UniProt P56159 25-429, limits assumed); assay: ELISA on GFRα1:Fc captured by mouse anti-human IgG, detection with goat anti-GDNF antibody; COS cell-derived protein
T1 construct: extracellular domain; Bought (R&D Systems), captured on plates by a mouse anti-human IgG; also called GFRα1 ECD; GFRal; not shown: Fc part of the bought fusion, captured by a mouse anti-human Fc antibody
T1 sequence (looked up): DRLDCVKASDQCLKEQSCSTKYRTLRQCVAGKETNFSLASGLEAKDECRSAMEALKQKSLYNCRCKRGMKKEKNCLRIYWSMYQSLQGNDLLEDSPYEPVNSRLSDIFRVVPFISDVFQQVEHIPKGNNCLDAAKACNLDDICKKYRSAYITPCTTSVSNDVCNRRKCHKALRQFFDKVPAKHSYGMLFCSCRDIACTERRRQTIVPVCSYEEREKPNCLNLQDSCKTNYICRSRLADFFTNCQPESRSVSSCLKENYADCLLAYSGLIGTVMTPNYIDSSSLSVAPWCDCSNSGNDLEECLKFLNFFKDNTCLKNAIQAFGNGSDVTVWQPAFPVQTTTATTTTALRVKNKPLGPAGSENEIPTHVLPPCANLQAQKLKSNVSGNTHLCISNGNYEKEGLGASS

[2] = biological target: T2, human insulin receptor extracellular domain (HIR ECD) (human, UniProt P06213 28-956, limits assumed); assay: ELISA on plated HIR ECD, COS cell-derived protein, detection with biotinylated goat anti-human IgG; non-linear regression
T2 construct: extracellular domain

[3] = biological target: T1, Fc fusion of the human GFRα1 …; assay: ELISA on captured GFRα1:Fc (format of FIG. 33), CHO-derived protein

EC50 [1]: 1.68 nM
EC50 [2]: 0.87 nM
EC50 [3]: 1.44 nM
B1: HIRMAb-GDNF fusion protein (other)
heavy: QVQLQQSGPELVKPGALVKISCKASGYTFTNYDIHWVKQRPGQGLEWIGWIYPGDGSTKYNEKFKGKATLTADKSSSTAYMHLSSLTSEKSAVYFCAREWAYWGQGTLVTVSA[human IgG1 constant region cut from this listing]SSSPDKQMAVLPRRERNRQAAAANPENSRGKGRRGQRGKNRGCVLTAIHLNVTDLGLGYETKEELIFRYCSGSCDAAETTYDKILKNLSRNRRLVSDKVGQACCRPIAFDDDLSFLDDNLVYHILRKHSAKRCGCI
light: DIQMTQSPSSLSASLGERVSLTCRASQDIGGNLYWLQQGPDGTIKRLIYATSSLDSGVPKRFSGSRSGSDYSLTISSLESEDFVDYYCLQYSSSPWTFGGGTKMEIKRTVAAPSVFIFPPSDEQLKSGTASVVCLLNNFYPREAKVQWKVDNALQSGNSQESVTEQDSKDSTYSLSSTLTLSKADYEKHKVYACEVTHQGLSSPVTKSFNRGEC
notes: IgG1-neurotrophin fusion; both are written under this one molecule and the cell source is named under assay; Tritiated in the capillary assay; also called HIRMAb-GNDF; AGT-190
